Source: publication PMC6351562, “Structure, function, and inhibition of drug reactivating human gut microbial β-glucuronidases” (Scientific Reports, 2019)

Experiments:
[1] = system: Parabacteroides merdae GUS (PmGUS); conditions: pNPG as substrate; optimal pH 5.5; 37 °C
[2] = system: Bacteroides ovatus GUS (BoGUS); assay: In vitro DCF-G processing assay (UPLC); assay type: biochemical; conditions: DCF-G as substrate, 400 µM; pH 5.0; 37 °C
[3] = system: Parabacteroides merdae GUS (PmGUS); assay: In vitro DCF-G processing assay (UPLC); assay type: biochemical; conditions: DCF-G as substrate, 400 µM; pH 5.5; 37 °C

Compound | Km [1] [µM] | kcat [1] | Apparent kcat [2] [s⁻¹] | Apparent kcat [3]
O=C(O)[C@H]1O[C@@H](Oc2ccc([N+](=O)[O-])cc2)[C@H](O)[C@@H](O)[C@@H]1O [pNPG, p-nitrophenol-β-D-glucuronide] | 2400 ± 70 | 0.088 s⁻¹ and 0.088 ± 0.001 s⁻¹ | – | –
O=C(Cc1ccccc1Nc1c(Cl)cccc1Cl)O[C@@H]1O[C@H](C(=O)O)[C@@H](O)[C@H](O)[C@H]1O [DCF-G, Diclofenac acyl β-D-glucuronide] | – | – | 1.64 ± 0.04 | 0.034 s⁻¹ and 0.034 ± 0.001 s⁻¹

Where “and” joins values, the source holds several entries; their conditions need not be identical. Equal entries are not always repeated.
